# Laboratory results taken from patent publication US20090010942A1, “NOVEL PRIMATE CHITINASES AND USES THEREFOR” (WYETH, priority 2007, published 2009).
# Test: chitinase enzyme assay in conditioned media of transfected COS cells
# Assay type: biochemical
# Description: Enzymatic activity assays were performed using cloned mNC, engineered hNC (stop codon substituted to allow for translation of full protein), engineered mut-hNC (truncated), and cloned hAMCase in COS cells. The full length mNC construct was expressed and the chitinase activity of the resultant gene products was measured.
# Cultured conditions were as follows: COS cells were cultured in DME media and were transfected at 90% confluency using TransIT®-LT1 transfection reagent (MIRUS). 24 hours post transfection, cell culture media was replaced with serum-free R1CD1 media. Conditioned media, containing secreted enzyme, was collected 48 hours later. Chitinase enzyme assays were performed directly from these samples, as follows.
molecule,measurement,value
"hNC: engineered human novel chitinase based on a human pseudogene, SEQ ID NO:4 (protein, listed as Homo sapiens) MAKLTLLTGLLLVLTAEIGSAYQLTCYFTNWAQNQPGLGCFKPDDIDPCLCTHLIYAFAGMQNNEITTIEWDDMTLYQAFNGLKNKNSQLKTLLAIGGWNFGTAPFTAMVSTPENHQTFINSVIKFLRQYEFDGLDFDWEYPGSRVSPPQDKHLFTVLVQEMREAFEQEAKHINKPRLMVTAAVAAGISNIQSGYEIPQLSQYPDYIHVMTYDLHGSWEGYTGENSPLYKYPTDTGSNAYLNVDYVMNYWKDNRAPAEKLLVGFPAYGHSFLLSNPSNHGIDAPTTGPGPAGPYTRQSGFWAYYEICTFLKNGATEVWEASEDVPYAYKGNEWLGYDNTKSFQIKADWLKKNNFGGAMVWAIDLDDFTGTFCNQGKFPLITTLKDALGLQSTSCKAPAQPIAPIAEANITCGVSHSGSSGGRSGRSSGGSPRGSGFCADRASGLYPDPTDKNASYSCVNGKTFTQHCQPGGVFDTFCSCCSW",enzymatic (chitinase) activity,no significant enzymatic activity was detected
